# Results from the supplement of paper PMC7125110.
# ± gives the standard error. Variants at the floor of the assay are shown more often than the library holds them.
# B1: glmS ribozyme (parent)
# chain: AUAAAAGCGCCAGAACUACAGAAAUGUAGUUGACGAGGAGGAGGUUUAUCGAAUUUUCGGCGGAUGCCUCCAAA
# Columns and labels:
# Settings in all cases: with glucosamine-6-phosphate
# glucosamine-6-phosphate [1] = variants of: B1; assay: self-cleavage kobs at 640 uM GlcN6P; higher = faster cleavage; RNA array
# Procedure, shortened: (§1)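 Weighted Michaelis–Menten fits across concentrations supplied kcat and KM, based on kobs from one- or two-exponential decay fits to normalised per-tile medians. The data came from barcoded ribozyme variants transcribed in situ by E. coli RNA polymerase on sequenced MiSeq chips and tracked at 37 °C by a hybridised Cy3 probe. Glucosamine-6-phosphate (40 μM to 10 mM) in HEPES/KCl/Mg(OAc)2 buffer was flowed in.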
# glucosamine-6-phosphate [2] = variants of: B1; assay: self-cleavage kobs at 2500 uM GlcN6P; higher = faster cleavage; RNA array
# Procedure, shortened: as §1
# glucosamine-6-phosphate [3] = variants of: B1; assay: self-cleavage kobs at 160 uM GlcN6P; higher = faster cleavage; RNA array
# Procedure, shortened: as §1
# glucosamine-6-phosphate [4] = variants of: B1; assay: self-cleavage kobs at 10000 uM GlcN6P; higher = faster cleavage; RNA array
# Procedure, shortened: as §1
Variant,self-cleavage kobs at 640 uM GlcN6P (glucosamine-6-phosphate [1]) [s⁻¹],self-cleavage kobs at 2500 uM GlcN6P (glucosamine-6-phosphate [2]) [s⁻¹],self-cleavage kobs at 160 uM GlcN6P (glucosamine-6-phosphate [3]) [s⁻¹],self-cleavage kobs at 10000 uM GlcN6P (glucosamine-6-phosphate [4]) [s⁻¹]
U45C U65C G66U C68G,< 1e-05,< 1e-05,–,–
U46C C61G G63A C70A,< 1e-05,< 1e-05,–,–
G43C A48G C71G,< 1e-05,< 1e-05,< 1e-05,–
G60U G66U,< 1e-05,–,< 1e-05,< 1e-05
A6G A36U,–,< 1e-05,< 1e-05,< 1e-05
A6G A36C,–,< 1e-05,< 1e-05,< 1e-05
A42C A48U U65C,< 1e-05,–,–,–
A53U C58G C68U,9.02e-05 ± 3.1e-05,–,–,–
A42U U49C C61U,< 1e-05,–,–,–
C8U A36U G40C U56A,–,< 1e-05,< 1e-05,–
G13C C50G,–,–,0.00119 ± 0.00034,–
A6C C16U G35A,–,< 1e-05,< 1e-05,–
C8G C16A C50U G66A,–,–,< 1e-05,< 1e-05
C50G G51A G59U C70G,0.000132 ± 2.9e-05,7.99e-05 ± 2e-05,9.16e-05 ± 3.2e-05,–
U46G U56G C70U,0.000436 ± 9.2e-05,0.00119 ± 0.00031,0.000211 ± 5.3e-05,–
G44A U56G C68G,< 1e-05,–,–,–
C10G A14G G37C C70U,–,–,< 1e-05,–
U45A C68G C71U,< 1e-05,< 1e-05,< 1e-05,–
G60A G62A,< 1e-05,–,–,–
C50G G63A A64U,0.000136 ± 4.5e-05,–,0.000145 ± 4.6e-05,–

Variant,self-cleavage kobs at 640 uM GlcN6P (glucosamine-6-phosphate [1]) [s⁻¹],self-cleavage kobs at 2500 uM GlcN6P (glucosamine-6-phosphate [2]) [s⁻¹],self-cleavage kobs at 160 uM GlcN6P (glucosamine-6-phosphate [3]) [s⁻¹],self-cleavage kobs at 10000 uM GlcN6P (glucosamine-6-phosphate [4]) [s⁻¹]
C8U G35U G44A,–,–,< 1e-05,–
U45C U47C,0.000179 ± 5.5e-05,0.000515 ± 0.00013,–,–
C10A G13U A52G U56C G66C,–,< 1e-05,< 1e-05,–
U45G U49C G63A,< 1e-05,–,–,–
U45G C67U C70U C71U,< 1e-05,–,–,–
U49C U55C,< 1e-05,< 1e-05,–,–
C50G U57G G66U C70G,0.000982 ± 0.0003,0.000139 ± 4.9e-05,–,–
G7U A12C G41A,–,< 1e-05,< 1e-05,–
C10G A39G G66A,–,< 1e-05,< 1e-05,–
U47G G51A A52G U65G,< 1e-05,< 1e-05,–,–
G44C A48G C61A U69A,< 1e-05,< 1e-05,< 1e-05,< 1e-05
U45G A64C C67G,< 1e-05,–,–,–
G63U U65A,< 1e-05,< 1e-05,< 1e-05,< 1e-05
U46C U49G,4.66e-05 ± 1.2e-05,8.96e-05 ± 1.6e-05,–,–
G7U U31C,–,< 1e-05,< 1e-05,< 1e-05
U46C G51C A52C,< 1e-05,< 1e-05,< 1e-05,–
U49G G62A,< 1e-05,–,–,< 1e-05
C10G U55C G63U C67U U69A,–,–,< 1e-05,–
A42U U57A,< 1e-05,< 1e-05,< 1e-05,–
A48U C71U,0.000153 ± 2.3e-05,0.000338 ± 5.6e-05,–,0.000461 ± 5.6e-05

Variant,self-cleavage kobs at 640 uM GlcN6P (glucosamine-6-phosphate [1]) [s⁻¹],self-cleavage kobs at 2500 uM GlcN6P (glucosamine-6-phosphate [2]) [s⁻¹],self-cleavage kobs at 160 uM GlcN6P (glucosamine-6-phosphate [3]) [s⁻¹],self-cleavage kobs at 10000 uM GlcN6P (glucosamine-6-phosphate [4]) [s⁻¹]
G51U A52U U65G,< 1e-05,< 1e-05,< 1e-05,–
U46G C68G,5.11e-05 ± 1.8e-05,7.97e-05 ± 1.8e-05,–,9.69e-05 ± 1.7e-05
G43C U47G C58G U69A,< 1e-05,–,–,–
G44A A48G G51U G66C,< 1e-05,–,–,–
U46G U57C G60U,< 1e-05,–,–,–
U49G C50G G51A,< 1e-05,–,–,–
A12G U49C C67G,–,–,< 1e-05,–
G44C C58A G62U A64G,< 1e-05,–,–,–
A42U A52U U56G,< 1e-05,–,–,–
G62C C67G U69G,< 1e-05,–,–,–
G62C C67G U69A,< 1e-05,–,–,–
A12U G32C C34U,–,< 1e-05,< 1e-05,–
C8G C50A,–,< 1e-05,< 1e-05,< 1e-05
C11A C34U G60U C71A,–,< 1e-05,< 1e-05,–
G43C U49A U57G C68G,< 1e-05,–,–,–
A6C G40U C61A,–,< 1e-05,< 1e-05,< 1e-05
U54C C71G,0.000424 ± 0.00013,0.000351 ± 0.00011,0.000132 ± 5.7e-05,0.00091 ± 0.00016
A6U C10G A36C,–,< 1e-05,< 1e-05,–
